Experimental data from publication PMC4336329 (PLoS ONE, 2015).
Hit rate of the full screen: of about 310,000 compounds, about 2,200 (0.71%) showed an effect of 50% or more. Effects have a minus sign here. The list shows a part of the results.

What follows are compounds tested against human ether-à-go-go-related gene (hERG) potassium channel (human, UniProt Q12809) (assay: primary screen, population patch clamp on CHO cells stably expressing hERG).
human ether-à-go-go-related gene (hERG) potassium channel, sequence (Q12809 whole entry, looked up): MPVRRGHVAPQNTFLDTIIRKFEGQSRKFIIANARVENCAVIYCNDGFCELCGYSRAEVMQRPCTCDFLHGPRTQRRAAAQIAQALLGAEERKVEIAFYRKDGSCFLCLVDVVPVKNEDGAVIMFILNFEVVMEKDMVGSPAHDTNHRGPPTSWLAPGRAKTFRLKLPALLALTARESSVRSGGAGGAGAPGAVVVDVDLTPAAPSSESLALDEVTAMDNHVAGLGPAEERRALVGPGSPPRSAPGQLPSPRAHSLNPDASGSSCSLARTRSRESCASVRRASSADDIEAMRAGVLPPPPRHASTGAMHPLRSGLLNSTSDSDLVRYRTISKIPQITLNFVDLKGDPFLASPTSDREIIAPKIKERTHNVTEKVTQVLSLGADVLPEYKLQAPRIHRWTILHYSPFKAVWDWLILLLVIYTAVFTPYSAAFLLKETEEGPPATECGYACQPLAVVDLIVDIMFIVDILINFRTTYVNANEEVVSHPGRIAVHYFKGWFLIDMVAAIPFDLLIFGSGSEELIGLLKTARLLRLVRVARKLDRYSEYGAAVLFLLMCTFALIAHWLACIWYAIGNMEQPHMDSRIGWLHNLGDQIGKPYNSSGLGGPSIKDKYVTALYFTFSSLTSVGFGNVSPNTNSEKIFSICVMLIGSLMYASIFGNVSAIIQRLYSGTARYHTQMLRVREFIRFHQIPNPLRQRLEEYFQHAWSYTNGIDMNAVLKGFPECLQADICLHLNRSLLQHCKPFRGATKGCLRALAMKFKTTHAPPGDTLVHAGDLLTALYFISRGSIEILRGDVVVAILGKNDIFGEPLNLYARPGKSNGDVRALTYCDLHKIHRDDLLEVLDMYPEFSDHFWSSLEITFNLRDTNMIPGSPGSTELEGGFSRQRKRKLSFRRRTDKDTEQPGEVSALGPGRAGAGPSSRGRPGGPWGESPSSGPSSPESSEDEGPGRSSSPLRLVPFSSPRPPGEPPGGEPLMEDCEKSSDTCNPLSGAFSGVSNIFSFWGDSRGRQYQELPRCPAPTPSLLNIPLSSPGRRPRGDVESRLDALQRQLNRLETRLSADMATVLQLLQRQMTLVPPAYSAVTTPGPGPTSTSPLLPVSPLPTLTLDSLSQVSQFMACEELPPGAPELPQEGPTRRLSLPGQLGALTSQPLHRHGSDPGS

SMILES	hERG current change (%, negative = inhibition) at 1uM
O=C(Nc1ccccn1)c1nc(-c2ccccc2)n(-c2ccccc2)n1	-1.7%
c1ccc(SCc2nc(-c3ccccn3)no2)cc1	-6.25%
O=C(N/N=C/c1ccco1)c1cnccn1	10.1%
Oc1c(-c2cc(-c3ccco3)[nH]n2)ccc2ccccc12	12%
N=C1/C(=C\c2ccc(SCc3ccccc3)o2)C(=O)N=C2SC=NN12	17.4%
CCOc1ccc2[nH]c(SCC(=O)OC)c([N+](=O)[O-])c2c1	5.41%
COC(=O)NNC(=O)C1CCC(C)CC1 (stereo not drawn)	1.23%
C=C[C@@]1(C)CC(=O)[C@]2(O)[C@@]3(C)[C@@H](O)CCC(C)(C)[C@@H]3[C@H](O)[C@H](OC(C)=O)[C@@]2(C)O1	4.98%
Cc1cc(NC(=O)COC(=O)C2CC(=O)N(c3cccc(C)c3C)C2)no1 (stereo not drawn)	11%
CCOC(=O)c1cc(C(=O)c2ccccc2O)cn2c(=O)c3c(C)c(C)sc3nc12	5.26%
O=C(C1CCCN(Cc2ccc3c(c2)OCO3)C1)N1CCCC1.O=C(O)C(=O)O (stereo not drawn)	9.76%
CCNc1nc(NCC)n2c(SCc3ccc(F)cc3)nnc2n1	10.6%
Cc1ccc(C2CN(C)C3(C(=O)Nc4ccccc43)C23COc2ccccc2C3=O)cc1 (stereo not drawn)	9.13%
CCOc1cc(/C=N\NC(=O)CN2CCOCC2)ccc1OCc1ccc(F)cc1	-2.13%
CCCCNC(=O)c1c(N)n(CCCOC)c2nc3ccccc3nc12	7.61%
COCCn1c(-c2ccc(NC(C)=O)cc2)nc2c1c(=O)[nH]c(=O)n2CC(C)C	10.8%
O=C(Nc1ccc2c(c1)nc1n2CCN(Cc2ccccc2)C1)NC1CCCCC1	1.79%
O=[N+]([O-])c1ccc(NNC(=S)Nc2ccccc2)cc1	-2.75%
CCOc1ccc(-c2nnc3ccc(SCC(=O)Nc4cc(C)on4)nn23)cc1	15.2%
O=C(O)COc1ccc(Cl)cc1Cl	8.1%
Cc1cc(=O)c(C(=O)OC(C)C(=O)NC(N)=O)nn1-c1ccc(Cl)cc1 (stereo not drawn)	18.2%
Cc1cc(O)cc2c(=O)c3ccccc3sc12	3.61%
CN(C)C(=O)CN1C(=O)NC2(CCc3ccccc32)C1=O (stereo not drawn)	14.9%

SMILES	hERG current change (%, negative = inhibition) at 1uM
CC(OC(=O)C1CC=CCC1C(N)=O)C(Cl)=C(Cl)Cl (stereo not drawn)	16.4%
O=C(N/N=C/c1ccc[nH]1)c1ccc(Cl)cc1	3.91%
COc1ccc(C(=O)N/N=C(\Cc2ncc[nH]2)c2ccccc2)cc1	12.8%
CC(=O)O.COc1c(O)ccc(C2NC(=O)NC(C)=C2C(=O)Nc2ccccc2C)c1[N+](=O)[O-] (stereo not drawn)	30.2%
C[C@H](NC(=O)c1ccc(Cl)cc1)C(=O)NCCc1ccc(S(N)(=O)=O)cc1	5.4%
Cc1nc(N2CCOCC2)nc(N2CCCCC2)c1[N+](=O)[O-]	13.8%
Cc1c(NC(=O)CCSc2ccc(Cl)cc2)c(=O)n(-c2ccccc2)n1C	-2.6%
CCOC(=O)c1sc(=S)n(-c2ccccc2)c1N(C(C)=O)C(C)=O	15.5%
CC1=C(C(=O)OCC(C)C)C(c2cccs2)NC(=S)N1 (stereo not drawn)	8.49%
CCCCN(CC)C(=O)c1cccc(Cl)c1	10%
Cc1nonc1OCCNCc1c(C(=O)N2CCCCCCC2)nc2ccc(Cl)cn12	9.53%
COC(=O)c1ccc(CSc2nnc(Nc3cccc(OC)c3)s2)o1	10.7%
CN(CC(=O)NCc1ccccc1)CC(=O)Nc1ccc(Cl)c(C(F)(F)F)c1	2.05%
COCCCn1c(SCc2nnc(-c3ccc(OC)c(OC)c3)o2)nnc1-c1ccncc1	5.03%
C(=N\Nc1nnnn1-c1ccccc1)/c1ccncc1	10.5%
O=[N+]([O-])c1cccc(-c2cn3nc(-c4ccccc4)c(-c4ccccc4)nc3n2)c1	1.03%
C=CCn1c(SCC(=O)Nc2ccc(C(=O)OCC)cc2)nnc1-c1cccs1	12.3%
CCCOC(=O)C1C2C=CC3(CN(c4ccc(Cl)c(F)c4)C(=O)C13)O2 (stereo not drawn)	5.82%
Cc1ccccc1C1NC(=S)NC2=C1C(=O)CCC2 (stereo not drawn)	7.89%
O=C(CCC(=O)N1CCCCCC1)NCc1ccc(F)cc1	3.53%
Cc1cc(N)ccc1-c1cc2ccccc2oc1=O	17.4%
O=c1[nH]c(CSc2ncc(C(F)(F)F)cc2Cl)nc2ccccc12	11.6%
CCc1nc2nc(C)c(NS(=O)(=O)c3ccc(Cl)cc3)c(=O)n2[nH]1	5.56%

SMILES	hERG current change (%, negative = inhibition) at 1uM
Cc1ccc2nc(N3CCN(c4cccc(C)c4C)CC3)c3nnnn3c2c1	10.1%
COC(=O)c1cc(C(=O)N2CCN(c3ccccc3OC)CC2)cc([N+](=O)[O-])c1	-6.52%
Cc1cccnc1-n1c(-c2ccco2)nc2ccccc2c1=O	14%
COc1ccc(-c2ccc(C(=O)O)o2)c([N+](=O)[O-])c1	14.5%
O=C(NCCN1CCOCC1)c1cc2sccc2n1Cc1ccc(Cl)cc1	-13.4%
Cc1ccnc(NS(=O)(=O)c2ccc(NC(=O)C(C)(C)C)cc2)n1	12.6%
Cc1nc(C(=O)Nc2ccccc2)sc1C1(C)CC(c2cccnc2)=NO1 (stereo not drawn)	11.5%
FC(F)(F)c1ccc(Cl)c(-n2c(-c3ccco3)n[nH]c2=S)c1	10.7%
O=C(Nc1nnc(C2CC2)s1)C1CCCCC1	-1.02%
COC(=O)C12CC3CC(C1)CC(n1cnc(Cl)n1)(C3)C2	-1.91%
CCOC(=O)CN1NC2(CCC(C)CC2)NC1=S (stereo not drawn)	6.86%
COc1ccc(C(=O)c2ccc(OC)cc2OC)cc1	14.1%
CCc1ccccc1NC(=O)CN1CCN(C(=O)CN2C(=O)NC3(CCCC3)C2=O)CC1	7.11%
CCN(C(=O)CN1CCCCC1)c1c(N)n(Cc2ccccc2)c(=O)[nH]c1=O	5.48%
CCn1c(SCC(=O)Nc2ccc(C(C)=O)cc2)nc2ccccc21	1.49%
COc1cc(C)nc(N(Cc2ccccc2)S(=O)(=O)c2ccc(C)cc2)n1	4.51%
CC1CC(C)(C)NC(=S)N1CCCC(=O)Nc1ccc(Br)cc1 (stereo not drawn)	10.5%
O=c1[nH]n(-c2ccc(Cl)cc2)c(=O)c(Cl)c1Cl	10.6%
Cc1c(OCC(=O)NC(Cc2ccc(Cl)cc2)C(=O)O)ccc2c1oc(=O)c1ccccc12 (stereo not drawn)	2.86%
CC1CCCN(CCCNC(=O)c2ccc(CS(=O)(=O)c3c(Cl)cccc3Cl)o2)C1 (stereo not drawn)	4.14%
N#CC(Nc1ccccc1)c1ccccc1OCc1ccccc1 (stereo not drawn)	8.4%
Cc1cccc(N2CCN(Cc3oc(CO)cc(=O)c3O)CC2)c1C	13.7%
Cc1cccc(CN2CCN(c3ccc(Cl)cc3)CC2)c1	12.7%

SMILES	hERG current change (%, negative = inhibition) at 1uM
CN(C)c1cccc(C(=O)OCC(=O)Nc2nccs2)c1	14.1%
COc1ccc(NC(=O)CCC(=O)Nc2nnc(C(F)(F)F)s2)c(OC)c1	5.23%
CCOc1ccc(NS(=O)(=O)c2cc3c(cc2C)N(C)CCO3)cc1	9.19%
Cc1ccc(Cl)cc1NS(=O)(=O)Cc1ccccc1	14.1%
CC(C)NC(=S)NN=C1c2ccccc2-c2ccccc21	9.27%
CN(C)c1cccc(C(=O)Nc2cccc(S(=O)(=O)NC3=NCCC3)c2)c1	17%
CN(c1ccc([N+](=O)[O-])cc1C(=O)Nc1ccccc1)C1CCCCC1	-0.371%
COCc1ccc(CN2CCCC(C(=O)Nc3ccc(-c4cscn4)cc3)C2)o1 (stereo not drawn)	18.1%
COc1ccc(-n2c(SCC(=O)NCc3cccs3)nnc2-c2ccoc2C)cc1	-55.9%
CC(C)C(NC(=O)c1ccco1)C(=O)NCC(c1ccco1)N(C)C (stereo not drawn)	14.8%
O=C(NCCSc1ccccn1)c1ccc(Cl)cc1	-0.123%
COc1cccc(C2=CC(=O)CC(C)(C)C2)c1	11.1%
O=C(Cn1nnc(-c2ccccc2-n2cnnn2)n1)c1ccccc1	5.12%
Cc1cc(C(=O)NNC(=S)NCc2ccco2)nn1C	17.5%
Cc1ccc(C(=O)Nc2nnc(S(=O)(=O)N3CCC(C)CC3)s2)cc1	14.4%
O=C(CCC(=O)N1CCN(S(=O)(=O)c2ccc3ccccc3c2)CC1)Nc1cc(Cl)cc(Cl)c1	9.32%
COC(=O)N/N=C(C)\C=C\c1ccco1	20.4%
COc1cc(/C=N/NC(=O)CCc2c(C)n[nH]c2C)cc(OC)c1OC	12.1%
CN1CCc2c(sc3c2c(=O)n(-c2ccc(Cl)cc2)c2nncn32)C1	6.78%
Cc1ccc(S(=O)(=O)N2CCCOC2CNC(=O)C(=O)NCCC2=CCCCC2)cc1 (stereo not drawn)	4.67%
CCOc1ccc2ccccc2c1/C=N\NC(=O)c1ccc([N+](=O)[O-])cc1	10.5%
